# From the supplement of paper PMC11417369
# ± gives the standard deviation of the averaged measurements. The list shows a part of the results.
# Test system: PfAP2-G AP2 domain (GST-tagged)
# Assay: gcPBM binding intensity (ln(normalized median fluorescence intensity)); higher = stronger DNA binding
# Summary of the method: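 DNA-binding domains from P. falciparum, fused to GST and produced in E. coli, were put on an Agilent 4 × 180k double-stranded probe array for 1 h in 1× PBS holding 1% milk, 0.2 mg/ml BSA, 0.5% salmon testes DNA and 0.03% Triton X-100. Probes were primer-extended, 36 bp long and drawn from intergenic genomic regions, with negative controls included. After Alexa488 anti-GST antibody detection and a 488 nm scan, binding intensity was set as the highest Masliner-normalised natural-log median intensity across replicate spots of either probe orientation.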
row,Sequence,gcPBM binding intensity (ln)
1,GTAATATCAATATAAAGTACACACTATAGTATGTAT [XGTACX_site4714],11.4 ± 0.81
2,TGTAGATATTATATATGTACGCATATGAAATATATA [XGTACX_site1586],11.5 ± 0.94
3,ATTTTAATGACATATACACACAAAGGTTCATAACAA [CACACA_site5664],10.11 ± 0.078
4,ATAAAACCAACATAGAGTACAGATCGACTATGTTTC [XGTACX_site4329],11.2 ± 0.72
5,TTTTCTTTTTAAATTACACACACATATATATATGTA [CACACA_site9172],9.97 ± 0.014
6,TCTTTTTTTTTTTTTTTTTTTTTTTTTTTTTTTTTT [GTGCAC_negctrl_site18],11.4 ± 1.1
7,AAAAAAATTAAAAATAAAGAAAAAAAAAAAAAAAAA [GTGCAC_negctrl_site401],9.38 ± 0.38
8,TATATTCTTTTAAACAGTACACACACACATATATAT [XGTACX_site1701],11 ± 0.61
9,AATATAAAAATATAAAAACACACGTAAAAAAATTTA [CACACA_site3399],9.97 ± 0.11
10,ATATCTTAAATTATTTGTACATATATATATATATAT [XGTACX_site8034],10.9 ± 0.68
11,TTTTATTTATAATATATACACACTAACATTATTTAT [CACACA_site1284],9.83 ± 0.042
12,GAATATTTATCATGGGGTACCTTAAAAAAGGGAAAA [XGTACX_site298],11.2 ± 0.73
13,TTTTTTTTTTTGAGGAGGACACAAAAATATGCTACC [XGTACX_site756],11.3 ± 0.93
14,AATATAAACCCAAACACACACATATATATATATATA [CACACA_site268],10.1 ± 0.23
15,TATACTCAGAAACACACACACACACCCAAAAAAAAA [CACACA_site4434],10.4 ± 0.36
16,ATATAAGTACATATAACACACATATATTATAAGTAT [CACACA_site2647],11.2 ± 0.79
17,TTTGCCATAAAACACACACACATGTAAACCCCCTTT [CACACA_site1646],10.9 ± 0.57
18,GGAAACCCTCCCAAATGTACTTTTATAAAAAAATAC [XGTACX_site5502],11.2 ± 0.64
19,AAAAAAAAAAAAAAAACACACATACACCCAGACACA [CACACA_site5807],10.6 ± 0.28
20,ATACATATATAAATATGTACACACATATGTATGATC [XGTACX_site8219],11.3 ± 0.71
21,TATGCACGCGAACACACACACACAACTAAAAAATAA [CACACA_site7251],10.6 ± 0.56
22,TTTTTATTTTTTGTCTGTACATATATAAATTTATTA [XGTACX_site1525],11.1 ± 0.77
23,GATATAAGGGTATGAAGTACATAAATATTTTATGCT [XGTACX_site1886],11.3 ± 0.88

row,Sequence,gcPBM binding intensity (ln)
1,TTGTTTATGTGAGAAGTGCATTTTTTCGTTCATGTA,10.2 ± 0.19
2,AAGTTTTATATTTATTAAATTTTTTTTTTTCCTTTT [XGTACX_negctrl_site184],9.44 ± 0.23
3,TTTTTTATTTTGTTGAAGCAATGAAAATGAATGAAA [TGCATGCA_negctrl_site495],10.1 ± 0.26
4,ATATGTTTAAAAATATGTACGTATTATATATTCTAT [XGTACX_site1358],11.5 ± 0.94
5,ATGAATTAACCTAATCGTACAATAAATATTATTATA [XGTACX_site596],11 ± 0.81
6,ATATATATATATGTATGTATATATATATGTTTGATT [XGTACX_negctrl_site62],9.93 ± 0.35
7,ACTATTTAAAAATATGGTACACGAAATTCAAGAGAA [XGTACX_site5903],11.2 ± 0.71
8,ATGTAAGTATAAAATGTGCGCATTGGGAATGAGGAC,10.6 ± 0.26
9,ACTTCATAGGTTACCTGTACATATAAGGAGTTATCA [XGTACX_site4110],11.1 ± 0.71
10,TTTATATAAGGACATGCATGCTATTATTAAATATAT [TGCATGCA_site1011],10.7 ± 0.49
11,TAATATATAAATATATGTACATAATAAATAGGATAT [XGTACX_site3661],11.2 ± 0.66
12,TACGCGAAATGAATATGTACATATATGAGGGCATAT [XGTACX_site4293],11.2 ± 0.66
13,ATTAAATCATATGAATGTACGGATATATATATTTCC [XGTACX_site8650],10.7 ± 0.48
14,TGATAAATTTTCACATGTACATATATAGAATAACCT [XGTACX_site2860],11.3 ± 0.66
15,TATACACATAGACACACACACATACACGCACATACA [CACACA_site6908],10.4 ± 0.3
16,TAATAAGTATCAAAATGTACATGACAAAAATAATTT [XGTACX_site8961],11.1 ± 0.57
17,TCTAAAAAAATTATATCACACATTATAAAGCATATT [CACACA_site4885],9.76 ± 0.014
18,ATATATATGTATATATGTACATATATGTATATATAT [XGTACX_site4772],10.9 ± 0.55
19,ATAATATATGCAAAAACATGCACATAATATGTAAAA [TGCATGCA_site742],9.805 ± 0.007
20,ATAATTTTATATAAATGTACATACATTTTTATTATA [XGTACX_site7368],10.9 ± 0.45
21,AAGATTCATATAAAAAGTACAAAAAGAAAAAAATAA [XGTACX_site6033],11.2 ± 0.7
22,ATTTGAAAAAATACTACACACCATATTGTTAATTTT [CACACA_site3829],10 ± 0.042
23,ATATCTTCACTTATATGTACTTACATTTTTTTTTTT [XGTACX_site8696],11.4 ± 0.81

row,Sequence,gcPBM binding intensity (ln)
1,ATAACTATATACATCTGTACATAATACATAGATAAA [XGTACX_site2795],11 ± 0.69
2,CACCCACCCACATACACACACATACACATATATATA [CACACA_site1722],10.2 ± 0.25
3,TTTTTATGTTCTATATATATATATATATATATATAT [GTGCAC_negctrl_site306],10 ± 0.43
4,GCACGTGTGATTAGATGTACATAACATGTATATGTC [XGTACX_site4632],11 ± 0.53
5,TTATAAAAAGAACAATTAAAAAAAAATAAAATAAAA [XGTACX_negctrl_site398],9.75 ± 0.071
6,AGAATAGTGGAAAACACACACGTTTGAGATATGGAC [CACACA_site4782],10.225 ± 0.007
7,CAAATAAAAAAAGTAGCACACATGAATAAAATATAT [CACACA_site3130],10.24 ± 0.071
8,ATACATACATATGTATGTACGTATGTATGTATGTAT [XGTACX_site3853],11.4 ± 0.98
9,ACATATAAGATATATACACACATATAAATACATTAA [CACACA_site7763],9.785 ± 0.035
10,AAAAAAAAAAACTACACACATACAAATATTTATATA [CACACA_site2574],9.755 ± 0.064
11,CATAATATATATTGAGCATGCTACTATTGTTAGAAA [TGCATGCA_site740],9.895 ± 0.064
12,AAGATATGAGGGAATACACACATATATATATATATA [CACACA_site1581],10.1 ± 0.48
13,AAAATGAAGAAGTGCACACATATATATATTTATATA [CACACA_site507],10.4 ± 0.23
14,TTTTTCTTTTTTTTTTCCTTTATCACATAAGAAAAA [CACACA_negctrl_site192],10.1 ± 0.35
15,CTTTTTTTTTAAAAATGTACACATTTTTGAAAATAC [XGTACX_site3127],11.4 ± 0.84
16,AAGAAAATAAATAATACACACAAGGATTTGTAAATA [CACACA_site690],9.8 ± 0.28
17,AAAAAAAAAATTAAAAGTACAGAAAATAAATAAATA [XGTACX_site7470],11.4 ± 0.82
18,ATATGTTTGATTTTTTTTTTTTTTTTTTTTATGTGT [CACACA_negctrl_site1001],9.62 ± 0.11
19,TTAATACACCATAAAAGTACATAATATGATATTTAA [XGTACX_site8561],11.3 ± 0.91
20,CTTAATATGAATAAAACACACATATATAATTTGTAA [CACACA_site5120],9.715 ± 0.035
21,AAAAGAATTAAAAAATGTACATATAATATATATATA [XGTACX_site6721],11.1 ± 0.68
22,TTTTTTTTTTTTTTTACACACATTTGAATAACTTTA [CACACA_site6810],9.75 ± 0.34
23,AAGAATTTAGAAGGCATGCACTTAAACATGCATATA,9.84 ± 0.099

row,Sequence,gcPBM binding intensity (ln)
1,TATAAATATACACCCACACACATATATAAATAAATA [CACACA_site7717],10.2 ± 0.16
2,AAAAAAGAAGACATCTAAGTAATAGTAACAATGTAT [CACACA_negctrl_site1660],9.78 ± 0.28
3,GACATATTATTCATGTGTACATATTATATGTATATA [XGTACX_site3442],11.3 ± 0.73
4,GTAATGAACAAACACAAAAAAAAAAAAAAAATAATA [TGCATGCA_negctrl_site344],9.75 ± 0.31
5,AATTGAGTATCGTGAGTGCAAAACGTGGTTCAAAGA,10.5 ± 0.29
6,TAAAATAAAATAAAATGTACTTTCCTTTTGATAATA [XGTACX_site6288],10.8 ± 0.64
7,CATATAATAAATAATACACACATATTGTAAATATAT [CACACA_site5734],9.955 ± 0.035
8,ATATATTTTAGGAGAGTGCATTTAATATTATTTAAT [GTGCAC_site9444],9.95 ± 0.13
9,TTATATATTTATAATCGTACAATAATTAACGTAAAA [XGTACX_site3206],11.1 ± 0.57
10,TTTTCCCTTACAGAAAAAAAAAAATTCCTAACCCCG [CACACA_negctrl_site650],10.4 ± 0.52
11,TTTTTATTTTTTGAAACACACACAAAAAAAATGATA [CACACA_site8564],10.3 ± 0.36
12,TAAGGATATATATATTCACACACACCGGGAAATATA [CACACA_site8020],9.995 ± 0.021
13,AAACAAATATATATATGTACTTATAAAAAAAAAAAT [XGTACX_site2211],11.3 ± 0.77
14,AAGGATCACGCACAAACACACATATTTATATTTATA [CACACA_site6405],10.1 ± 0.23
15,CTTTATTTTTTATACACACACAATATGTATATATAT [CACACA_site3550],10.22 ± 0.099
16,CATTTTTTGCTTTCAACACACATACAATATATATAA [CACACA_site6127],10.2 ± 0.22
17,TATGAAATATTTATACACAGAACTTCATAATTTTCA [TGCATGCA_negctrl_site509],9.8 ± 0.12
18,TATATATGGAAAAGAGTCAAAAAGAAAAAAGAAAAA [CACACA_negctrl_site1374],10.2 ± 0.3
19,ATATATTTAAAATTGACACACATTTAATGACATTTT [CACACA_site3112],10
20,TTTTTGTATTCTTCTTCTTCCAGACTACATTATGTC [XGTACX_negctrl_site235],9.915 ± 0.092
